# Assay results: PMC4336329 (PLoS ONE, 2015)
# Among all 310,000 compounds or so, about 14,000 (4.5%) showed an effect of 50% or more. The effect is printed as a negative number. Some of the results follow.
# Biological target: human ether-à-go-go-related gene (hERG) potassium channel (human, UniProt Q12809)
# Test: primary screen, population patch clamp on CHO cells stably expressing hERG
# 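Also: peak tail current of the secondary pulse compared with the same well before compound.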
# Chain of human ether-à-go-go-related gene (hERG) potassium channel (Q12809 whole entry, looked up): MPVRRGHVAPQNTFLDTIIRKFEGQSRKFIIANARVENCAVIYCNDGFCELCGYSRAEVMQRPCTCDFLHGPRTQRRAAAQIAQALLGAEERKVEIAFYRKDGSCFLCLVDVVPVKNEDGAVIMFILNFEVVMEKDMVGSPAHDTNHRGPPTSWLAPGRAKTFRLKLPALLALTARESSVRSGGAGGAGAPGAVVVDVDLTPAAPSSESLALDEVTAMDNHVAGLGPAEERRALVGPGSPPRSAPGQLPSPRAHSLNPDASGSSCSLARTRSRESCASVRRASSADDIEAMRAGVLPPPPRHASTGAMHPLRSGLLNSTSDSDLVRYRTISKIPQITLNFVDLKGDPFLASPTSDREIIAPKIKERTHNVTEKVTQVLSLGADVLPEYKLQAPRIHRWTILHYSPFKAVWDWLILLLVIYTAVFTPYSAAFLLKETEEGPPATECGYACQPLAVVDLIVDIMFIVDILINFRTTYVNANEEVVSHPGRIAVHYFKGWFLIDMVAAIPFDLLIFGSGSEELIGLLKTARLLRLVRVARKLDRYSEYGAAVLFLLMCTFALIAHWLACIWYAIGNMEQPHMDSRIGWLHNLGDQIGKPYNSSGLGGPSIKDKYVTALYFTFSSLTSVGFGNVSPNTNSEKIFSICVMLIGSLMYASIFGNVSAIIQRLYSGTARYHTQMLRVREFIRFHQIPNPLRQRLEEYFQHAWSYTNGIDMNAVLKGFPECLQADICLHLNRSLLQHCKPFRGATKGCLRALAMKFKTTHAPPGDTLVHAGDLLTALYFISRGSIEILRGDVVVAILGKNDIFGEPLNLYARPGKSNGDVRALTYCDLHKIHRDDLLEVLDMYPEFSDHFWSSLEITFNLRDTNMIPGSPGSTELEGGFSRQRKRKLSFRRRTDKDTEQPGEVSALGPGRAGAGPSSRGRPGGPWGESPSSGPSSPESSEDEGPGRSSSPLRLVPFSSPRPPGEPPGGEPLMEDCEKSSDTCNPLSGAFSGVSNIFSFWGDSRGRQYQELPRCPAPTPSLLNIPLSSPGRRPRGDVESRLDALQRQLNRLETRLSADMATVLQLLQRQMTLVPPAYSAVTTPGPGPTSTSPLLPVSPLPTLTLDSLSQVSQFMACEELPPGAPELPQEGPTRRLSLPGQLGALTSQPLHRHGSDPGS
row,Compound,"hERG current change (%, negative = inhibition) at 10uM"
1,C=CCNc1nnc(-c2ccncc2)s1,-21.7%
2,c1ccc2c(c1)nc(-c1ccncc1)n1nnnc21,-18.9%
3,CCOc1ccc(-c2nnc(-c3ccco3)o2)cc1,-3.92%
4,O=C1CC(Nc2ccc3ccccc3c2)C(=O)N1Cc1ccccc1 (stereo not shown),16.9%
5,CCCC1O[C@@H]2C[C@H]3[C@@H]4CCC5=CC(=O)C=C[C@]5(C)[C@H]4[C@@H](O)C[C@]3(C)[C@]2(C(=O)CO)O1 (stereo partly shown),-25.4%
6,CCc1ccc(CNc2ccc(O)cc2)cc1,6.04%
7,O=C(CSCCO)Nc1cccc(C(F)(F)F)c1,-10%
8,COc1ccc(CNC(=O)CN(C(=O)CCC(=O)Nc2ccccn2)c2cc(C)ccc2C)cc1,-20.2%
9,CCCCOc1ccc(C2C3CN(C(=O)OCC)CC=C3C(C#N)=C(N)C2(C#N)C#N)cc1OC (stereo not shown),9.48%
10,COc1ccc(CCN2CC(C(=O)NCc3cnn(C(C)C)c3)CCC2=O)cc1 (stereo not shown),17%
11,O=C(CSc1nn(-c2ccccc2)c(=S)s1)Nc1ncccn1,13.4%
12,CCc1ccccc1OCC(=O)Nc1ccc2c(c1)OCCO2,-7.92%
13,CN1CCN(NC(=O)C23CC4CC(CC(C4)C2)C3)CC1.Cl,-19.8%
14,CC(C)CCn1c(=O)c2ccccc2n2c(=S)[nH]nc12,18.2%
15,COc1ccc(S(=O)(=O)N2CCN(Cc3ccc4c(c3)OCO4)CC2)cc1F,-30.5%
16,COc1cc(NC(=O)COC(=O)CSc2ccc3ccccc3c2)c(C)cc1[N+](=O)[O-],-8.94%
17,CCc1nccn1-c1cc(C(C)(C)C)nc2c(-c3ccc(Cl)cc3)cnn12,20.9%
18,Cc1ccc(C)c(NC(=O)C2CC3CCC2C3)c1 (stereo not shown),12.6%
19,Cc1ccccc1Nc1nc(-c2sc(NC(=O)c3cccc(Cl)c3)nc2C)cs1,29.8%
20,c1ccc(-c2cnc(-c3ccccc3)nn2)cc1,11.7%

row,Compound,"hERG current change (%, negative = inhibition) at 10uM"
1,O=C(NCCc1ccc(Cl)cc1)C1CCN(c2cnccn2)CC1,-35.3%
2,O=C(Nc1cccc(Cl)c1)OCc1cncs1,-2.42%
3,CC1(CC(=O)O)SC(=O)NC1=O (stereo not shown),-3.67%
4,CC(OC(=O)c1nc(Cl)ccc1Cl)C(=O)Nc1ccccc1F (stereo not shown),19.6%
5,Cc1ccc2cccc(OCC(=O)N3CCc4ccccc43)c2n1,7.12%
6,Cc1ccc(S(=O)(=O)CC(=O)c2ccc(C(C)(C)C)cc2)cc1,4.03%
7,OCC(O)/C=N/Nc1nc2ccccc2s1 (stereo not shown),14%
8,COCCN1C(=O)C(O)=C(C(C)=O)C1c1ccc(F)cc1 (stereo not shown),0.257%
9,COc1ccc(OC)c(NC(=S)NCc2cccnc2)c1,8.59%
10,CC(C)N(N=Nc1ccc([N+](=O)[O-])cc1)C(C)C,8.18%
11,COc1ccccc1OCC(=O)NCc1n[nH]c(=O)c2ccccc12,2.92%
12,COc1cccc(C(=O)NC(=O)Nc2cc(C)[nH]n2)c1,17.2%
13,O=C(CCCN1C(=O)/C(=C/c2ccccc2Cl)SC1=S)N1CCOCC1,6.21%
14,O=C(c1cnccn1)N(Cc1ccco1)C1(C(=O)NC2CCCCC2)CCCCC1,-8.81%
15,COc1ccc(N(C(=O)c2ccco2)C(C(=O)NC2CCCC2)c2ccc(N(C)C)cc2)cc1 (stereo not shown),2.81%
16,COc1ccc(CN2CNc3nc4ccccc4n3C2)cc1,1.16%
17,CCN(CC)c1ccc(/C=N/Nc2nc(C)cc(=O)[nH]2)cc1,-20.5%
18,CNS(=O)(=O)c1cc(NC(=O)c2cccc3cccnc23)ccc1C,10.2%
19,CCN(Cc1cc(=O)oc2cc(C)ccc12)c1ccccc1,16.7%
20,O=C(NCCCn1ccnc1)C(=O)NCC1OCCCN1S(=O)(=O)c1ccc(Cl)cc1 (stereo not shown),-0.0397%

row,Compound,"hERG current change (%, negative = inhibition) at 10uM"
1,COc1ccc(C(=O)Cn2c(Cl)nc3c2c(=O)n(C)c(=O)n3C)cc1,-2.11%
2,O=C(O)C(=O)O.O=C1CCCN1CCCNCC(=O)N1c2ccccc2Sc2ccccc21,2.92%
3,O=S(=O)(c1ccccc1)c1nc(-c2ccccc2)oc1NCc1cccnc1,8.28%
4,CN1C(=O)CSc2ccc(NC(=O)NCc3ccco3)cc21,0.319%
5,CN(c1ccc(F)cc1)S(=O)(=O)c1ccc2[nH]cc(C(=O)O)c(=O)c2c1,13.8%
6,Cc1cccc(-n2cccc2)c1C#N,2.74%
7,CCO[C@@H]1OC(C(=O)O)=C[C@H](c2ccc(C(F)(F)F)cc2)[C@H]1CCCO,13.7%
8,COc1ccc(-c2ccc(SCC(=O)Nc3nnc(C)s3)nn2)cc1,43.5%
9,COCCCn1c(SC(C)C(=O)NC2CC2)nc2ccccc2c1=O (stereo not shown),-29.1%
10,Cc1ccccc1-c1nc2ccccc2c(=O)n1C,10.4%
11,O=C(Cc1ccc(Cl)cc1)OCC(=O)c1ccc[nH]1,-17.2%
12,O=C(Oc1cccc(NC(=O)c2ccccc2Cl)c1)c1ccc([N+](=O)[O-])cc1,-16.9%
13,Cc1sc2nc(CSC(C)C(=O)Nc3cc(S(C)(=O)=O)ccc3Cl)[nH]c(=O)c2c1C (stereo not shown),12.6%
14,NC(=O)C(c1cccc(Cl)c1)c1ncc(C(F)(F)F)cc1Cl (stereo not shown),6.65%
15,COc1cccc2cc(C(=O)NNC(=O)c3ccc(Br)cc3)c(=O)oc12,11.7%
16,CC1(C)CCC[C@]2(C)[C@H]3CC(=O)O[C@]3(C)CC[C@@H]12,4.64%
17,O=C(CN1C(=O)c2ccccc2S1(=O)=O)NCc1ccccc1,8.98%
18,Nc1ncn([C@H]2C[C@H](O)[C@@H](CO)O2)c(=O)n1,24.4%
